Out of some 310,000 compounds screened, about 2,200 (0.71%) showed an effect of 50% or more. The effect is printed as a negative number. Some of the results follow.
These compounds were tested against human ether-à-go-go-related gene (hERG) potassium channel (human, UniProt Q12809) (assay: primary screen, population patch clamp on CHO cells stably expressing hERG).
Chain of human ether-à-go-go-related gene (hERG) potassium channel (Q12809 whole entry, looked up): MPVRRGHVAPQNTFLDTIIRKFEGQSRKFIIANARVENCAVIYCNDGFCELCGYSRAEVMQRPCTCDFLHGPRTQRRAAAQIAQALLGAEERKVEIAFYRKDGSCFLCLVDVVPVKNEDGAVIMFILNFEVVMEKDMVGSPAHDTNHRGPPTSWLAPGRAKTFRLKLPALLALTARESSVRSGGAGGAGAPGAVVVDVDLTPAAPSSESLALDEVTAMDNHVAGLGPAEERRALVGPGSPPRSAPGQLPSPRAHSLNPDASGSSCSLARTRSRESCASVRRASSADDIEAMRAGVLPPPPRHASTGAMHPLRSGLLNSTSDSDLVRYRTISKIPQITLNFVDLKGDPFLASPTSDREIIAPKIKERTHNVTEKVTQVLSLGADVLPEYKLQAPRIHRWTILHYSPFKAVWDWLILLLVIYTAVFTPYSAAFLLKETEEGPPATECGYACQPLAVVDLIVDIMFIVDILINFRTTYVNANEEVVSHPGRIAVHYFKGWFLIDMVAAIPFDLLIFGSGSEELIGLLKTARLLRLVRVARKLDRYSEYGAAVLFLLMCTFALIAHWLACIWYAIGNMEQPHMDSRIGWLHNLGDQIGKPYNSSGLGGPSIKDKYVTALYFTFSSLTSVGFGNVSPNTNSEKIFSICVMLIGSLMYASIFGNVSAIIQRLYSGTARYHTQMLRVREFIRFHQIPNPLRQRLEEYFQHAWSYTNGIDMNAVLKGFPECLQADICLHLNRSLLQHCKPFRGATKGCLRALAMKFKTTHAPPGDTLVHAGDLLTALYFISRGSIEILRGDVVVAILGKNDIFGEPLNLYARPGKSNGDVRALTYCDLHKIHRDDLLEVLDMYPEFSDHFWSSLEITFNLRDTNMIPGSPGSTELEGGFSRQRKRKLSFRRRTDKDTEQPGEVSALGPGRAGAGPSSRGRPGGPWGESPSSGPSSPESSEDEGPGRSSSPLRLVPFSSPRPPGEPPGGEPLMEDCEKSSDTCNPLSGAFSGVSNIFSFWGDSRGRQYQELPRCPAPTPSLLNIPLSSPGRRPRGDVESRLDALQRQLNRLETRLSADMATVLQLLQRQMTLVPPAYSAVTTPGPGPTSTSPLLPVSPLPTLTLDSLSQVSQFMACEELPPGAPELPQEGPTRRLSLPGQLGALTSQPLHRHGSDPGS

| Structure (SMILES) | hERG current change (%, negative = inhibition) at 1uM |
| --- | --- |
| CCOC(=O)/C(C#N)=C1\C(=O)N(Cc2ccccc2)c2ccccc21 | 8.56% |
| COCCNC(=O)c1ccc(N2CC3CC(C2)c2cccc(=O)n2C3)c(NC(=O)c2cc(OC)cc(OC)c2)c1 (stereo not drawn) | 14.6% |
| Cc1ccc(C)c(N2CCN(C(=O)C3CCCCN3S(=O)(=O)c3ccc(F)cc3)CC2)c1 (stereo not drawn) | 3.42% |
| CCCCn1nnc(NC(=O)c2ccc(-c3cccc(Cl)c3)o2)n1 | -16.2% |
| CCc1ccc(C(=O)c2ccccc2C(=O)O)s1 | 19% |
| CSc1nc2c(c(=O)[nH]1)C(c1ccccc1Cl)CC(=O)N2 (stereo not drawn) | 9.59% |
| Cc1ccccc1-[n+]1c(-c2ccccc2)cc(-c2ccccc2)cc1-c1ccccc1.[O-][Cl+3]([O-])([O-])[O-] | -55.8% |
| O=S(=O)(c1ccc(N2CCCC2)nc1)N1CCOCC1 | 2.26% |
| Cc1cccc(C(=O)Nc2ccccc2N2CCN(c3ccc(F)cc3)CC2)c1 | 13.7% |
| COc1ccc(NC(=O)c2cccc(OS(=O)(=O)N(C)C)c2)cc1 | 10.1% |
| COC(=O)c1sccc1NC(=O)Cn1nnc(-c2ccccc2C)n1 | 12% |
| CCOc1ccc(NC(=O)C/C(C)=N/NC(=O)Cc2ccc(Cl)cc2)cc1 | 11.2% |
| COc1ccc(-n2c(=O)[nH]cc(C(=O)N3CCc4ccccc43)c2=O)cc1 | 19.7% |
| N=C1C(=O)OCC1c1cc(Cl)ccc1NC(=O)Nc1ccccc1 (stereo not drawn) | 9.53% |
| COc1cc2c(cc1OC)C(SC)=NC(C)(C)C2 | 4.12% |
| O=C(CSc1nnc(Cc2cccs2)n1Cc1ccco1)Nc1ccc(Br)cc1 | 13.6% |
| COc1ccc(-c2cc(C(=O)N/N=C(\C)c3cccnc3)c3ccccc3n2)cc1 | 6.38% |
| CC1CCCN(C2(O)C(=O)Nc3c(C(F)(F)F)cccc32)C1 (stereo not drawn) | 14.4% |
| CC(C)(C)c1nc2sc3c(c2c(=O)o1)CCCC3 | 16.4% |
| COc1cc(OC)c(C#N)c(S(=O)Cc2ccccc2)c1 (stereo not drawn) | 9.56% |
| O=c1c2sccc2n(Cc2cccc(F)c2)c(=O)n1-c1ccc(F)cc1 | 4.2% |
| Fc1c(F)c(F)c(NC2=NCCCCC2)c(F)c1F | 11.8% |
| c1cc2c(cn1)cnc1cscc12 | 9.4% |
| CCCCN(C(=O)CCCc1nc2ccccc2s1)c1c(N)n(CC(C)C)c(=O)[nH]c1=O | -2.09% |

Reference: article PMC4336329 (PLoS ONE, 2015)
